The values below come from publication PMC6687543 (Structure (London, England : 1993), 2019).

Experiment [1] has as its target preformed binary complex IL-1β/IL-1RI-ECD ( | human, UniProt P01584 117-269; P14778 18-331). Put plainly: SPR.
The target in experiment [2] is T1, preformed binary complex IL-33/ST2-ECD ( | human, UniProt O95760 112-270; Q01638 19-321).
T1 sequence (looked up) 1: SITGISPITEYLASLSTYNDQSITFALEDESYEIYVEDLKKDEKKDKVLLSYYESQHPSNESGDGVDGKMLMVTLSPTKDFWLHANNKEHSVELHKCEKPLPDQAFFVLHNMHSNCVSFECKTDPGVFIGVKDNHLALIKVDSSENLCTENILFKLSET
T1 sequence (looked up) 2: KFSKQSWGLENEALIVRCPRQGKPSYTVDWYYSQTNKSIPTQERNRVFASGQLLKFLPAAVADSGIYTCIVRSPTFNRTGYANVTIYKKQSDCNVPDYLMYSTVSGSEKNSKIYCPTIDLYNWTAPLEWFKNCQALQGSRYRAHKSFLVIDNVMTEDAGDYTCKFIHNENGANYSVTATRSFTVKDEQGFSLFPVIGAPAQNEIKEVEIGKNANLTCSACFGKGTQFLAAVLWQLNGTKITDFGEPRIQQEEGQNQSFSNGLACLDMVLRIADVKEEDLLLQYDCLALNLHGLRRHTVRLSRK
Put plainly: SPR.

B1: IL-1RAcP-ECD (extracellular domain of IL-1 receptor accessory protein), wild type (receptor)
chain: not shown
Turning to B1, the Kd turned out to be 0.006 µM in experiment [1] and 0.031 µM in experiment [2].
